This is one part of the list.

The test system of this assay is T1, C. trachomatis L2/434/Bu expressing GFP (CTL2-GFP).
T1 construct: L2/434/Bu GFP intracellular growth in HeLa cells
Set-up: species or system HeLa; C. trachomatis total inclusion area by high-content imaging, normalised to DMSO. The conditions noted are these: total inclusion area; 28.5 h, 10 µM; inhibitor. In outline:
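Bulk GFP and resorufin signals were read first. Wells were then fixed, stained with Hoechst and imaged to detect GFP inclusions and host nuclei. MICs followed the previously described calculation.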
For the molecule `Fc1ccc(CN2CCC(c3n[nH]c4ncccc34)CC2)cc1` [CBK284902], the “% of control remaining” value turned out to be 95.6394.

Turning to `CC(C)NC1=NC(=O)C(CC(=O)Nc2ccccc2)S1` (stereo not shown) [CBK013880], the “% of control remaining” value came to 41.3012.

On to `O=C(CSCc1c(F)cccc1Cl)Nc1ccc(S(=O)(=O)N2CCCCC2)cc1` [CBK268034], for which the “% of control remaining” value amounted to 29.8837.

For the molecule `COc1ccc2c(c1)C(=O)NC1(CCN(C(=O)c3ccc(OC)c(C)c3)CC1)O2` [CBK166291], the “% of control remaining” value turned out to be 144.725.

Regarding `Cc1ccc2cc(CN(Cc3ccccc3)S(C)(=O)=O)c(O)nc2c1` [CBK269329], the “% of control remaining” value is recorded as 112.266.

Turning to `Cc1ccc(-n2c(O)nnc2-c2ccc(Cl)c(Cl)c2)cc1` [CBK074887], the “% of control remaining” value amounted to 95.8324.

Regarding `Cc1ccn2c(-c3csc(Nc4ccc(S(N)(=O)=O)cc4)n3)c(C)nc2c1` [CBK263304B], the “% of control remaining” value is on record as 17.9311.

In the case of `O=C(Nc1ccncc1)c1ccc(S(=O)(=O)N2CCCC2)cc1` [CBK287786], the “% of control remaining” value is reported as 108.343.

In the case of `CCn1cc(CN2CCCCCC2c2cc(C)no2)c(C)n1` (stereo not shown) [CBK282159], the “% of control remaining” value is 126.292.

Consider `O=C(O)CCC(=O)Nc1ccc(S(=O)(=O)Nc2ccc(I)cc2)cc1` [CBK264866], for which the “% of control remaining” value is given as 50.7589.

On to `O=C1c2ccc(-n3c(=O)c4cc5c(=O)n(-c6ccc7c(c6)C(=O)N(c6ccccc6)C7=O)c(=O)c5cc4c3=O)cc2C(=O)N1c1ccccc1` [CBK262136], for which the “% of control remaining” value is 102.159.

As for `CC(NC1CCCN(c2ccc(C#N)cc2)C1=O)c1cncc(F)c1` (stereo not shown) [CBK306404], the “% of control remaining” value was 93.3482.

Consider `Oc1ccc(Nc2cc(-c3ccccc3)ncn2)cc1` [CBK291157], for which the “% of control remaining” value came out at 95.8187.

As to `CN(C)CC(C)(C)CNC(=O)C1(c2ccccc2)CCCC1` [CBK149532], the “% of control remaining” value is 98.355.

For `Cc1nn(CC(=O)Nc2ccc3c(c2)nc(CN2CCCC2)n3C)c(=O)c2ccccc12` [CBK268465], the “% of control remaining” value worked out at 104.47.

Take `CC1(C)OC(N2CCN(Cc3ccccc3)CC2)=Nc2ccccc21` [CBK023933C]: the “% of control remaining” value stood at 95.5062.

For `COc1ccccc1-c1nccnc1OCCn1cccc1` [CBK106820], the “% of control remaining” value is recorded as 115.014.

For `COCC(C)NS(=O)(=O)c1cc(C)ccc1OC` (stereo not shown) [CBK270037], the “% of control remaining” value was determined as 88.6611.

In the case of `CS(=O)(=O)N1CCCC(C(=O)Nc2ccc(S(N)(=O)=O)cc2)C1` (stereo not shown) [CBK268490], the “% of control remaining” value came out at 81.1898.

In the case of `CS(=O)(=O)N1CC2(CCN(Cc3ccc4nsnc4c3)CC2)c2ccccc21` [CBK136957], the “% of control remaining” value was 97.6745.

In the case of `O=C(NCCc1cccs1)Nc1ccc2c(c1)C(F)(F)OC(F)(F)O2` [CBK045255], the “% of control remaining” value worked out at 85.8572.

As for `CC(C)c1ccc(C(C)NC(=O)c2ccc(=O)n(CC(=O)N3CCCCC3)c2)cc1` (stereo not shown) [CBK286084], the “% of control remaining” value is recorded as 111.617.

On to `CN(C)C(=O)CN1N=C(C(C)(C)C)Cn2c(cc3sccc32)C1=O` [CBK284116], for which the “% of control remaining” value was 66.3131.

For `CCN1CC2(CCC1=O)CCN(Cc1cccc(CCN)c1)CC2` [CBK306823], the “% of control remaining” value turned out to be 37.5914.

Regarding `O=C(O)C(=N\Nc1ccccc1)/C(=N/Nc1ccccc1)C(=O)O` [CBK278303N], the “% of control remaining” value is reported as 101.664.

On to `O=C(CSc1ccccc1)c1ccccc1` [CBK002224], for which the “% of control remaining” value turned out to be 97.4879.

In the case of `CCOC(=O)c1[nH]c2ccccc2c1NS(=O)(=O)c1ccc(OC)c(OC)c1` [CBK047421], the “% of control remaining” value is recorded as 96.9423.

Turning to `Cc1nnc(SCC(=O)N2c3ccccc3Sc3ccccc32)n1N` [CBK265920], the “% of control remaining” value is 82.8017.

With `COc1ccc([N+](=O)[O-])cc1NC(=O)c1cc(-c2ccccc2Cl)nc2ccc(C)cc12` [CBK267764], the “% of control remaining” value came out at 102.787.

As to `CCOC(=O)N1CCC(NC(=O)N(CCCN(C)C)Cc2ccc3c(c2)OCO3)CC1` [CBK159231], the “% of control remaining” value is 76.1059.

On to `CC(C)(CN)CN(Cc1ccc(-c2ccccc2)cc1)C(=O)Nc1ccccc1C(C)(C)C` [CBK002476C], for which the “% of control remaining” value was 35.2652.

As for `COC(=O)c1ccc(NC(=O)CNc2ccccc2)cc1` [CBK268064], the “% of control remaining” value worked out at 106.282.

Consider `c1ccc2c(c1)CCCN2CCc1c[nH]c2ccccc12` [CBK138330], for which the “% of control remaining” value is reported as 85.6092.

Take `Cc1noc(C)c1CC(=O)NC(C)CCc1ccc(F)cc1` (stereo not shown) [CBK281511]: the “% of control remaining” value is given as 88.5004.

Take `O=C(O)C(CC(=O)N1CCOCC1)NCc1ccccc1` (stereo not shown) [CBK267000]: the “% of control remaining” value came to 115.582.

Take `O=S(=O)(Cc1ccc(Br)cc1)c1cc2c(N3CCNCC3)nccc2s1` [CBK045688C]: the “% of control remaining” value turned out to be 78.6158.

Regarding `O=C(c1ccco1)N1CCN(c2ncccn2)CC1` [CBK144524], the “% of control remaining” value is recorded as 108.744.

For `COc1ccc(-n2c3c(cc(C(=O)Nc4ccccc4Br)c2=O)C(=O)CCC3)cc1` [CBK293945], the “% of control remaining” value stood at 121.82.

Turning to `CCn1cc(CN2CCCN(C(=O)c3cc(Cl)c[nH]3)CC2)cn1` [CBK306153], the “% of control remaining” value was 50.9924.

Take `CC(=O)C1=C(O)C(=O)N(CCCO)C1c1cccc([N+](=O)[O-])c1` (stereo not shown) [CBK263753]: the “% of control remaining” value is listed as 112.978.

For `O=C(NCc1cccnc1)c1ccc(CSc2ccccc2)cc1` [CBK300544], the “% of control remaining” value stood at 61.7691.

With `Cn1nnnc1SCCNC(=O)Nc1ccc(CN2CCOCC2)cc1` [CBK307084], the “% of control remaining” value is 102.19.

As for `Cn1ncc(N2CCC(CNC(=O)c3cc(F)ccc3Cl)C2)cc1=O` (stereo not shown) [CBK307286], the “% of control remaining” value stood at 72.0569.

`CC(C)N(CCOc1nccnc1-c1cnn(C)c1)C(C)C` [CBK107084]: the “% of control remaining” value was determined as 94.7763.

As for `CCn1nc(C)c(-c2cncn2CC(C)N2CCC(C)CC2)c1C` (stereo not shown) [CBK281593], the “% of control remaining” value is reported as 91.1139.

Take `CN(C)CCN(Cc1ccccc1)C(=O)Nc1cccnc1` [CBK145047]: the “% of control remaining” value is 96.8648.

As to `CCOC(=O)C1CCN(S(=O)(=O)c2ccc(Cl)s2)CC1` [CBK096109], the “% of control remaining” value is recorded as 95.4711.

Turning to `O=C(Nc1ccc(S(=O)(=O)N2CCOCC2)cc1)c1cc(-c2ccccc2)nc2ccccc12` [CBK264790], the “% of control remaining” value stood at 97.4484.

In the case of `COc1ccc2c(c1)-c1c(ss/c1=N\c1ccc(S(N)(=O)=O)cc1)C(C)(C)N2` [CBK263339], the “% of control remaining” value was 107.804.

With `COc1ccc(-c2cc3cccnc3n2CC(=O)N2CCCC2)cc1` [CBK285379], the “% of control remaining” value is recorded as 111.06.

Regarding `Cc1ccc(C#N)cc1S(=O)(=O)NC1CC(=O)c2ccccc21` (stereo not shown) [CBK304030], the “% of control remaining” value was determined as 43.053.

On to `Cc1c(C(=O)Nc2ccccn2)sc2nc(-c3ccccc3)cn12` [CBK287501], for which the “% of control remaining” value is reported as 115.556.

`O=C(Cc1ccncc1)NC1Cc2ccccc2C1` [CBK200351]: the “% of control remaining” value came to 88.8229.

As for `CCOC(=O)c1cccnc1-c1ccc(S(C)(=O)=O)cc1` [CBK149242], the “% of control remaining” value is 81.2929.

For the molecule `O=c1n(Cc2ccccn2)c2cccnc2n1Cc1cccs1` [CBK283867], the “% of control remaining” value is recorded as 77.7094.

For `CCOC(=O)CS(=O)(=O)Cc1cc(Cl)nc(Cl)c1` [CBK005544], the “% of control remaining” value turned out to be 58.0154.

On to `Cc1ccc(S(=O)(=O)Nc2ccc(C3(c4ccc(NS(=O)(=O)c5ccc(C)cc5)cc4)c4ccccc4C(=O)c4ccccc43)cc2)cc1` [CBK261155], for which the “% of control remaining” value worked out at 83.4605.

In the case of `COc1ccc(CNC(=O)C2CCCN(c3cnc4ccccc4n3)C2)cc1` (stereo not shown) [CBK287772], the “% of control remaining” value worked out at 93.8417.

`CS(=O)(=O)c1nnn(CC#N)n1` [CBK026075]: the “% of control remaining” value is on record as 89.2125.

In the case of `Cc1cccc(C)c1OCCOCC(O)CN1CCN(C)CC1` (stereo not shown) [CBK278206C], the “% of control remaining” value worked out at 90.1146.

With `COCCNC(=O)CN(C)c1cnc2ccccc2n1` [CBK305265], the “% of control remaining” value was found to be 64.8947.

Take `Fc1ccccc1-c1cn2ccnc2c(NCCc2cccnc2)n1` [CBK037473]: the “% of control remaining” value came out at 124.627.

Turning to `O=C1NC(c2ccccc2)Cc2onc(-c3ccccc3)c21` (stereo not shown) [CBK004409], the “% of control remaining” value came to 51.4543.

Consider `O=C(O)C1CCN(C(=O)[C@@H]2Cc3ccccc3CN2)CC1` [CBK286638], for which the “% of control remaining” value came out at 107.885.

Consider `NS(=O)(=O)c1cccc(NC(=O)COc2ccc([N+](=O)[O-])cc2)c1` [CBK263624], for which the “% of control remaining” value was determined as 96.119.

Take `N#CCCCN1CCN(c2nccnc2OCc2ccc(Cl)c(Cl)c2)CC1` [CBK083086T]: the “% of control remaining” value is given as 78.6666.

In the case of `CN(C1=NS(=O)(=O)c2ccccc21)c1ccc(OC(=O)C2CC(=O)N(c3ccccc3)C2)cc1` (stereo not shown) [CBK263849], the “% of control remaining” value turned out to be 91.5424.

Take `C[S+]([O-])CCNC(=O)c1cc(-c2cccs2)no1` (stereo not shown) [CBK282563]: the “% of control remaining” value was 91.7534.

As for `Cc1cccc2cc3c(nc12)OCC(=O)N(Cc1ccco1)C3` [CBK283816], the “% of control remaining” value is 64.951.

With `NCC(=O)Nc1ccc(Br)cc1C(=O)c1ccccc1Cl` [CBK264692B], the “% of control remaining” value came out at 103.678.

As to `COCCC1CN(c2nc(N(C)C)nc3c2CCN(C(C)=O)C3)CCO1` (stereo not shown) [CBK307464], the “% of control remaining” value was determined as 67.8205.

`COc1ccc([C@@]23CC[C@@H](NC(=O)Nc4nc(Cl)cc(Cl)n4)C[C@@H]2N(C)CC3)cc1OC` [CBK067083T]: the “% of control remaining” value amounted to 86.0784.

For the molecule `Cc1nn(C)c(Oc2ccccc2OCc2ccccc2)c1[N+](=O)[O-]` [CBK000281], the “% of control remaining” value is given as 84.5995.

Turning to `CSCCCNC(=O)N(CCc1ccccc1)Cc1ccccc1` [CBK155317], the “% of control remaining” value is recorded as 100.487.

`Cc1nn(-c2ccc(C(=O)O)cc2)c2c1C(=O)CC(C)(C)C2` [CBK286734]: the “% of control remaining” value stood at 94.461.

As for `COc1ccc([C@@]23CC[C@@H](NC(=O)c4cccc(Cl)c4)C[C@@H]2N(C)CC3)cc1OC` [CBK073982T], the “% of control remaining” value was determined as 64.9186.

Take `Nc1nc(OCCN2CCOCC2)cnc1-c1cc(Cl)cc(Cl)c1` [CBK145198]: the “% of control remaining” value came to 63.5003.

As to `Cc1nc(C)c(C(=O)N2CCCC(C(=O)c3ccc(F)cc3)C2)s1` (stereo not shown) [CBK305296], the “% of control remaining” value is 34.1063.

Turning to `Cc1cccc(NC(=O)c2ccc3n[nH]c(=S)n3c2)c1` [CBK288389], the “% of control remaining” value was 64.4749.

The record behind these values is PMC12040169 (PLOS Biology, 2025).
